Test results published in the supplement of paper PMC8183993.
Several values for one entry are separate records, joined by “and”; a condition that tells them apart may be missing. Equal entries are not always repeated. Structures can show the parent of a compound that is named as a salt. ± gives the standard deviation of the averaged measurements. Over roughly 3,200 compounds, “nuclei count (viability) relative to DMSO” has its median near 99; the lowest 2% begin near 16. Some of the results follow.

Tested on: U2OS
Experiment: nuclei count (viability) relative to DMSO (% of DMSO); higher = more viable cells
Details: 10 µM; 24 h
Description: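 Primary image-based screen in U2OS cells: compounds at 10 uM for 24 h, then a 1 h o-propargyl-puromycin (OPP) pulse, click labelling, and high-throughput microscopy. Mean cytoplasmic OPP intensity and nuclei count were normalised to DMSO wells within each plate (DMSO = 100) and averaged over triplicate plates.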

Row | SMILES | nuclei count
1 | CN1[C@@H]2CC[C@H]1C[C@@H](OC(=O)c1c[nH]c3ccccc13)C2 [Tropisetron HCl] | 89.9
2 | CN1[C@@H]2CC[C@H]1C[C@@H](OC(=O)c1c[nH]c3ccccc13)C2 [Tropisetron hydrochloride] | 107
3 | CN[C@@H](C)C(=O)N[C@H]1CN(C(=O)CC(C)C)CC[C@H]2CC[C@@H](C(=O)NC(c3ccccc3)c3ccccc3)N2C1=O | 96.2
4 | Oc1ccc(/C=C/c2cc(O)cc(O)c2)cc1 [Resveratrol] | 80.6 ± 3.9
5 | CCOC(=O)C1=C(COCCN)NC(C)=C(C(=O)OC)C1c1ccccc1Cl (configuration not stated) [Amlodipine besylate] | 81.4
6 | CCOC(=O)C1=C(COCCN)NC(C)=C(C(=O)OC)C1c1ccccc1Cl (configuration not stated) [Amlodipine] | 94 ± 3.4
7 | CCN(CC)CCNC(=O)c1c(C)[nH]c(/C=C2\C(=O)Nc3ccc(F)cc32)c1C [Sunitinib Malate (Sutent)] | 47.9
8 | COc1ccc(/C=C/C(=O)Nc2ccccc2C(=O)O)cc1OC [Tranilast] | 101.2 ± 0.66
9 | CCOc1cc2ncc(C#N)c(Nc3ccc(F)c(Cl)c3)c2cc1NC(=O)/C=C/CN(C)C [Pelitinib (EKB-569)] | 79.9
10 | Cc1c(N(C)C)c(=O)n(-c2ccccc2)n1C [Amidopyrine] | 101
11 | Oc1c(Cl)cc(Cl)c(Cl)c1Cc1c(O)c(Cl)cc(Cl)c1Cl [Hexachlorophene] | 90.1 ± 5.1
12 | C=C1C(=O)[C@]23[C@H](O)[C@H]1CC[C@H]2[C@@]12CO[C@]3(O)[C@@H](O)[C@@H]1C(C)(C)CC[C@@H]2O [Oridonin (Isodonol)] | 36
13 | NC(=O)c1ccc2[nH]ccc2c1 | 90.4
14 | O=C1c2c(O)cccc2C([C@@H]2O[C@H](CO)[C@@H](O)[C@H](O)[C@H]2O)c2cc(CO)cc(O)c21 (some centres not stated) [Aloin (Barbaloin)] | 96.5
15 | CCCCc1cc2ccccc2c(OCCN(C)C)n1 [Dimethisoquin hydrochloride] | 99.4
16 | CC(C(=O)O)c1ccc2c(c1)[nH]c1ccc(Cl)cc12 (configuration not stated) [Carprofen] | 107
17 | C=CCc1cccc(/C=N/NC(=O)CN2CCN(Cc3ccccc3)CC2)c1O | 72.7
18 | CC(NC(=O)C(Cc1ccccc1)NC(=O)OCc1ccccc1)C(=O)CF (configuration not stated) | 95
19 | Cc1cccc(C)c1NC(=O)C(C)N (configuration not stated) [Tocainide hydrochloride] | 112
20 | CN(C)C(=O)C(CCN1CCC(O)(c2ccc(Cl)cc2)CC1)(c1ccccc1)c1ccccc1 [Loperamide hydrochloride] | 101 ± 4.3
21 | Cc1ccccc1C(=O)Nc1ccc(C(=O)N2CCCC(O)c3cc(Cl)ccc32)c(C)c1 (configuration not stated) | 95.5
22 | CC[N+](CC)(CC)CCOc1ccc(/C=C/c2ccccc2)cc1 | 104
23 | CC(C)c1cc2c(c(O)c1O)[C@@]13CCCC(C)(C)[C@@H]1C[C@@H]2OC3=O [Carnosol] | 88
24 | CC(=O)O[C@H]1CC[C@@]2(C)C(=CC[C@@H]3[C@@H]2CC[C@]2(C)C(c4cccnc4)=CC[C@@H]32)C1 [Abiraterone Acetate (CB7630)] | 105
25 | Nc1nc2[nH]cnc2c(=S)[nH]1 [Thioguanine] | 44.1
26 | COc1ccccc1N1CCN(CCN2C(=O)c3ccccc3C(C)(C)C2=O)CC1 [ARC 239 dihydrochloride] | 103

Row | SMILES | nuclei count
27 | O=C(OCC(O)CO)c1ccccc1Nc1ccnc2cc(Cl)ccc12 (configuration not stated) [Glafenine hydrochloride] | 87.5
28 | Cc1cc(O)c2c(c1)C(=O)c1cccc(O)c1C2=O [Chrysophanic acid (Chrysophanol)] | 92.5 ± 11
29 | NC(=O)c1cn(Cc2c(F)cccc2F)nn1 [Rufinamide (Banzel)] | 94.8
30 | COc1cc2c(N3CCN(C(=O)Nc4ccc(OC(C)C)cc4)CC3)ncnc2cc1OCCCN1CCCCC1 [Tandutinib (MLN518)] | 93.9
31 | CC(C(=O)O)c1ccc(-c2ccccc2)c(F)c1 (configuration not stated) [Flurbiprofen] | 88.2 ± 9.6
32 | CC(C(=O)O)c1ccc(-c2ccccc2)c(F)c1 (configuration not stated) [Flurbiprofen (Ansaid)] | 102
33 | COc1cc(N)c(Cl)cc1C(=O)OCCCN1CCCCC1 | 96.6
34 | COc1ccc(CCN(C)CCCN2CCc3cc(OC)c(OC)cc3CC2=O)cc1OC [Zatebradine hydrochloride] | 97.4
35 | O=c1ccc2cc(O)c(O)cc2o1 [Esculetin] | 101
36 | C[C@H](CCC(=O)O)[C@H]1CC[C@H]2[C@@H]3[C@H](O)C[C@@H]4C[C@H](O)CC[C@]4(C)[C@H]3C[C@H](O)[C@]12C [Cholic acid] | 105
37 | COc1cc(C(=O)NC(=S)Nc2cccc(NC(=O)c3ccccc3)c2)cc(OC)c1OC | 101
38 | COc1cc([S+](C)[O-])ccc1-c1nc2cccnc2[nH]1 (configuration not stated) [Sulmazole] | 103
39 | NC(N)=NC(N)=Nc1cccc(Cl)c1 [m-Chlorophenylbiguanide hydrochloride] | 97.9
40 | C[C@H]1O[C@@H](O[C@H]2[C@@H](O)C[C@H](O[C@H]3[C@@H](O)C[C@H](O[C@H]4CC[C@@]5(C)[C@H](CC[C@@H]6[C@@H]5C[C@@H](O)[C@]5(C)[C@@H](C7=CC(=O)OC7)CC[C@]65O)C4)O[C@@H]3C)O[C@@H]2C)C[C@H](O)[C@@H]1O [Digoxin] | 14.3
41 | C[C@]12CCC(=O)C=C1CC[C@@H]1[C@@H]2[C@@H](O)C[C@@]2(C)[C@H]1CC[C@]2(O)C(=O)CO [Hydrocortisone (Cortisol)] | 104
42 | C[C@]12CCC(=O)C=C1CC[C@@H]1[C@@H]2[C@@H](O)C[C@@]2(C)[C@H]1CC[C@]2(O)C(=O)CO [Hydrocortisone base] | 108
43 | CCCCCCC[N+](CC)(CC)CCCCc1ccc(Cl)cc1 [Clofilium tosylate] | 99.8
44 | CCOC(=O)C1=C[C@@H](OC(CC)CC)[C@H](NC(C)=O)[C@@H](N)C1 [Oseltamivir phosphate (Tamiflu)] | 81
45 | CNCCCC1c2ccccc2C=Cc2ccccc21 [Protriptyline hydrochloride] | 102
46 | C=C[C@]1(C)C[C@@H](OC(=O)CS[C@@H]2C[C@H]3CC[C@@H](C2)N3C)[C@]2(C)[C@H](C)CC[C@]3(CCC(=O)[C@H]32)[C@@H](C)[C@@H]1O [Retapamulin] | 99.4
47 | Oc1ncnc2[nH]ncc12 [Allopurinol] | 103
48 | Oc1ncnc2[nH]ncc12 [Allopurinol (Zyloprim)] | 108
49 | CC(=O)N(O)[C@@H]1c2cc(C#N)ccc2OC(C)(C)[C@H]1O | 92.8
50 | COc1ccccc1C(=O)Nc1cc2c(cc1N1CCCC1)n(C)c(=O)n2C | 95.2
51 | O=C(CCc1ccc(O)cc1)c1c(O)cc(O)cc1O[C@@H]1O[C@H](CO)[C@@H](O)[C@H](O)[C@H]1O [Phlorizin (Phloridzin)] | 82.5
52 | COc1ccc(OC)c2c(=S)c3ccccc3[nH]c12 | 74.2

Row | SMILES | nuclei count
53 | Cc1sc(N)c(C(=O)c2cccc(C(F)(F)F)c2)c1C | 107
54 | c1ccc2c(Cc3c[nH]c4ccccc34)c[nH]c2c1 [Diindolylmethane] | 84.3
55 | CCC(=O)N1CCN(c2ccc(-n3c(=O)ccc4cnc5ccc(-c6cnc7ccccc7c6)cc5c43)cc2C(F)(F)F)CC1 [Torin 1] | 80.4
56 | CO/N=C(\C(=O)N[C@@H]1C(=O)N2C(C(=O)OCOC(=O)C(C)(C)C)=C(/C=C\c3scnc3C)CS[C@H]12)c1csc(N)n1 [Cefditoren pivoxil] | 94.5
57 | COc1ccc(-n2[nH]c3c4c(ncc3c2=O)CCCCC4)cc1 | 99.9
58 | C[N+]1(CCCCC[N+]2(C)CCCC2)CCCC1 [Pentolinium bitartrate] | 109
59 | C=C1C(=O)O[C@@H]2/C=C(\C)CC/C=C(\C)CC[C@@H]12 [Costunolide] | 73 ± 23
60 | O=C(Nc1ccccc1)c1cc([N+](=O)[O-])ccc1Cl | 91.9 and 96.1
61 | COc1ccc(CCN(C)CCCC(C#N)(c2ccc(OC)c(OC)c2)C(C)C)cc1OC (configuration not stated) [Verapamil hydrochloride] | 105
62 | Cc1onc(-c2ccccc2)c1-c1ccc(S(N)(=O)=O)cc1 [Valdecoxib] | 101
63 | CCCc1cc(=O)[nH]c(=S)[nH]1 [Propylthiouracil] | 104
64 | O=C(O)c1cc(O)c2c(c1)C(=O)c1cccc(O)c1C2=O [Rhein (Monorhein)] | 104
65 | Cc1ccc(Nc2c(F)cccc2Cl)c(CC(=O)O)c1 [Lumiracoxib (COX-189)] | 103
66 | O=c1cc(-c2cccc3c2Sc2ccccc2S3)oc(N2CCOCC2)c1 | 84.9 and 97.4
67 | Oc1ccc([C@H]2COc3cc(O)ccc3C2)cc1 [Equol] | 100
68 | Fc1ccc(C(c2ccc(F)cc2)N2CCN(C/C=C/c3ccccc3)CC2)cc1 [Flunarizine dihydrochloride] | 100 ± 3
69 | N=C(N)c1ccc(OCCCCCOc2ccc(C(=N)N)cc2)cc1 [Pentamidine] | 102
70 | N=C(N)c1ccc(OCCCCCOc2ccc(C(=N)N)cc2)cc1 [Pentamidine isethionate] | 94.9
71 | N=C(N)SCCc1ccc(OCc2ccc([N+](=O)[O-])cc2)cc1 [KB-R7943 mesylate] | 96.4
72 | CCCCC(=O)O[C@H]1CC[C@H]2[C@@H]3CCc4cc(O)ccc4[C@H]3CC[C@]12C [Estradiol Valerate] | 103
73 | CCCCC(=O)O[C@H]1CC[C@H]2[C@@H]3CCc4cc(O)ccc4[C@H]3CC[C@]12C [Estradiol valerate] | 101
74 | O=[N+]([O-])c1ccccc1S(=O)(=O)NCC1CCC(CNCC2CCc3ccccc3C2)CC1 (configuration not stated) [NTNCB hydrochloride] | 86.9
75 | N#Cc1c(O)c2c(-c3ccc(-c4ccccc4O)cc3)csc2[nH]c1=O | 105 and 91.5
76 | COc1cccc2c1C(=O)c1c(O)c3c(c(O)c1C2=O)C[C@@](O)(C(=O)CO)C[C@@H]3O[C@H]1C[C@H](N)[C@H](O)[C@H](C)O1 [Doxorubicin (Adriamycin)] | 12.7
77 | COc1cccc2c1C(=O)c1c(O)c3c(c(O)c1C2=O)C[C@@](O)(C(=O)CO)C[C@@H]3O[C@H]1C[C@H](N)[C@H](O)[C@H](C)O1 [Doxorubicin hydrochloride] | 13 ± 0.18
